Data published in PubChem BioAssay AID902 (National Center for Advancing Translational Sciences (NCATS), 2007).
Several values for one entry are separate records, joined by “and”; a condition that tells them apart may be missing. Equal entries are not always repeated. Among all 130,000 compounds or so, about 1,900 (1.5%) were called active. The shares of active, inactive and inconclusive entries below differ from those in the screen. Calls come from the whole dose curve; as a rule, active = well fitted cell-killing curve with a large enough effect; inconclusive = small, poorly fitted or top-dose-only effect; inactive = no such curve, though single readings can be large or run the other way. Where the call is inconclusive, the potency comes from a doubtful curve fit.

Assay: qHTS Screen for Compounds that Selectively Target Cancer Cells with p53 Mutations: Cytotoxicity of p53ts Cells at the Nonpermissive Temperature; note: nearly all actives have a fitted effect of over 55% in size
Settings: H1299-p53A138V viability at 39C, ATP luminescence, 24 h; activity change, negative = cell killing: at 46.1 µM (top of the series)
% is set by controls: 0 for no effect and ±100 for the full control effect; potency is the fitted concentration of half-maximal effect; tags give direction and shape of the fitted curve.

Row | Structure (SMILES) | activity change, negative = cell killing | Potency
1 | O=C1C=CC(=O)C=C1 | inactive: 6.63% | –
2 | Cc1ccc(CNC(=O)c2ccccc2NC(=O)c2nsc3ccccc23)cc1 | – | inconclusive: 6.31 µM [cytotoxic, partial curve]
3 | Cc1ccc(-n2c(/C=C\c3ccc(F)cc3)nc3ccccc3c2=O)cc1Cl | – | inconclusive: 0.0032 µM [cytotoxic, full curve, poor fit]
4 | CC(Oc1ccccc1)C(=O)Nc1ccc(C(=O)OCc2cc(=O)n3nc(C4CC4)sc3n2)cc1 (centres undefined) | – | inconclusive: 31.6 µM [cytotoxic, partial curve]
5 | CC(=O)OC1C[C@@]2(C)C(c3ccoc3)C[C@H]3O[C@@]32[C@@]2(C)C(=O)C(O)=C3C(C)(C)C(=O)C=C[C@]3(C)C12 (some centres undefined) | – | inconclusive: 31.6 µM [cytotoxic, single point]
6 | CCCn1c2ccccc2c2nnc(SCC(=O)Nc3cccc(C(C)=O)c3)nc21 | – | inconclusive: 31.6 µM [cytotoxic, single point]
7 | N[C@@H](Cc1cc(O)c(O)cc1O)C(=O)O | inactive: 9.27% | –
8 | Cc1nc(-c2ccc(-c3ccc(C(=O)N4CCc5cc6c(cc54)C4(CCN(C)CC4)CO6)cc3)c(C)c2)no1 | – | active: 15.8 µM and active: 10 µM
9 | CCOc1ccc(C(NC(=O)c2cc(OC)c(OC)c(OC)c2)c2cc(Cl)c3cccnc3c2O)cc1 (centres undefined) | – | inconclusive: 0.501 µM [cytotoxic, full curve]
10 | CCCCCCCCCOc1ccc2[nH]cc(CCN)c2c1 | – | active: 31.6 µM
11 | CN1CCN(C(=O)COc2ccc3ccccc3c2Br)CC1 | inactive: -3.88% | –
12 | O=C(COC(=O)c1cccc(NC(=O)c2ccc(Br)cc2)c1)c1ccc(Br)cc1 | – | inconclusive: 10 µM [cytotoxic, partial curve]
13 | O=C(O)c1cc(O)c(O)c(O)c1 | – | active: 10 µM
14 | Cc1ccc(CNC(=O)CCCn2c(=O)c3sccc3n(CC(=O)Nc3c(C)cccc3C)c2=O)cc1 | – | inconclusive: 31.6 µM [cytotoxic, single point]
15 | CN1C[C@H](CNC(=O)OCc2ccccc2)C[C@@H]2c3cccc4c3c(cn4C)C[C@H]21 | – | inconclusive: 12.6 µM [cytotoxic, partial curve]
16 | N#CC(C#N)=Cc1cc(O)c(O)c(O)c1 | – | inconclusive: 10 µM [cytotoxic, partial curve]
17 | CC[C@@]1(O)CC(O)c2c(cc3c(c2O)C(=O)c2c(O)ccc(O)c2C3=O)C1C(=O)OC (some centres undefined) | – | active: 12.6 µM
18 | C[C@@H]1CC[C@@]2(OC1)O[C@H]1[C@@H](O)[C@H]3[C@@H]4CC[C@H]5C[C@@H](O[C@@H]6O[C@H](CO)[C@H](O[C@@H]7O[C@H](CO)[C@@H](O)[C@H](O[C@@H]8OC[C@@H](O)[C@H](O)[C@H]8O)[C@H]7O[C@@H]7O[C@H](CO)[C@@H](O)[C@H](O[C@@H]8O[C@H](CO)[C@@H](O)[C@H](O)[C@H]8O)[C@H]7O)[C@H](O)[C@H]6O)[C@H](O)C[C@]5(C)[C@H]4CC[C@]3(C)[C@H]1[C@@H]2C | – | active: 12.6 µM
19 | COC1=CC(=O)O[C@@H](/C=C/c2ccc3c(c2)OCO3)C1 | – | inconclusive: 12.6 µM [cytotoxic, full curve]
20 | CCc1ccc(NC(=O)Cn2c(=O)oc3cc(S(=O)(=O)NCc4ccccc4)ccc32)cc1 | – | inconclusive: 0.01 µM [cytotoxic, full curve, poor fit]
21 | CCOc1ccc(CCNC(=O)c2cnc3sc(N4CCCC4)nn3c2=O)cc1 | – | inconclusive: 1.58 µM [cytotoxic, full curve, poor fit]
22 | N#Cc1c(Cl)c(Cl)c(Cl)c(C#N)c1Cl | – | active: 6.31 µM
23 | O=C(NCCc1ccc(Cl)cc1)c1ccc(Nc2nc3ccccc3n3nnnc23)cc1 | – | active: 7.94 µM
24 | O=C(Nc1ccc(Cl)c(C(F)(F)F)c1)c1ccc2c(c1)CCN2S(=O)(=O)c1ccccc1 | – | inconclusive: 3.16 µM [cytotoxic, full curve]
25 | CC1O[C@@H](OC2CC[C@@]3(C=O)C4CC[C@]5(C)C(C6=CC(=O)OC6)CC[C@@]5(O)C4CC[C@]3(O)C2)C(O)C(O)C1O (some centres undefined) | – | inconclusive: 0.0398 µM [cytotoxic, full curve, poor fit]
26 | Cc1cc(NC(=O)CSc2nc3c([nH]c4ccccc43)c(=O)n2-c2ccc(Cl)cc2)no1 | – | inconclusive: 7.94 µM [cytotoxic, partial curve, poor fit]
27 | CCN(CC)S(=O)(=O)c1ccc2c(c1)c(=O)c(C(=O)NCc1ccccc1OC)cn2C | – | inconclusive: 3.16 µM [cytotoxic, full curve]

Row | Structure (SMILES) | activity change, negative = cell killing | Potency
28 | O=C(Nc1nc2ccccc2s1)c1cccn(Cc2ccccc2)c1=O | – | inconclusive: 2 µM [cytotoxic, full curve]
29 | C[n+]1c(/C=C\c2ccc(O)c3ncccc23)[se]c2ccccc21 | – | inconclusive: 3.16 µM [cytotoxic, single point]
30 | COc1ccc2nc(N3CCN(C(=O)CS(=O)(=O)c4ccc(C)cc4)CC3)sc2c1 | – | active: 7.94 µM
31 | CCCCn1c(N)c(C(=O)OCC2CCCO2)c2nc3ccccc3nc21 (centres undefined) | inactive: 9.24% | –
32 | CCOC(=O)c1ccc(N2C(=O)c3[nH]nc(-c4ccccc4)c3C2c2ccc(C(C)C)cc2)cc1 (centres undefined) | – | inconclusive: 25.1 µM [cytotoxic, single point]
33 | C[C@H]1O[C@@H](O[C@H]2[C@@H](O)C[C@H](O[C@H]3[C@@H](O)C[C@H](O[C@H]4CC[C@]5(C)C6CC[C@]7(C)[C@@H](C8=CC(=O)OC8)CC[C@]7(O)C6CC[C@@H]5C4)O[C@@H]3C)O[C@@H]2C)C[C@H](O)[C@@H]1O (some centres undefined) | – | inconclusive: 0.0316 µM [cytotoxic, full curve]
34 | C/C(=C\C=C/[C@@H](C)C(=O)O)[C@H]1CN[C@H](C(=O)O)[C@@H]1CC(=O)O | inactive: -2.1% | –
35 | CCn1nc(-c2ccccc2)nc2c(=O)n(C)c(=O)nc1-2 | – | active: 3.98 µM
36 | Cc1ccc(Cl)cc1NC(=O)Cn1c(=O)oc2cc(S(=O)(=O)N3CCCCCC3)ccc21 | – | inconclusive: 12.6 µM [cytotoxic, partial curve]
37 | COc1cc2c3cc1Oc1c(O)c(OC)cc4c1[C@@H](Cc1ccc(cc1)Oc1cc(ccc1O)C[C@H]3N(C)CC2)N(C)CC4 | inactive: -4.34% [at 9.22 µM] | –
38 | C[C@@H]1C[C@@H]([C@H](O)CC2CC(=O)NC(=O)C2)C(=O)[C@@H](C)C1 | – | inconclusive: 0.251 µM [cytotoxic, full curve]
39 | CN1[C@@H]2CC[C@H]1CC(OC(=O)c1cc(Cl)cc(Cl)c1)C2 (some centres undefined) | – | inconclusive: 0.0008 µM [cytotoxic, full curve, poor fit]
40 | CCc1ccc(Nc2nc3c(S(=O)(=O)c4ccc(C)cc4)nnn3c3ccsc23)cc1 | – | inconclusive: 10 µM [cytotoxic, partial curve]
41 | CN1CC[C@]2(C)c3cc(O)ccc3N(C)[C@@H]12 | – | active: 25.1 µM
42 | C[C@@]12CC[C@H](O)C[C@@H]1CC[C@@H]1[C@@H]2CC[C@@]2(C)[C@@H](C3=CC(=O)OC3)[C@H](O)C[C@]12O | – | inconclusive: 3.16 µM [cytotoxic, single point]
43 | COC1CC(OC2CC[C@@]3(C=O)C4CC[C@]5(C)C(C6=CC(=O)OC6)CC[C@@]5(O)C4CC[C@]3(O)C2)OC(C)C1O (some centres undefined) | – | inconclusive: 0.1 µM [cytotoxic, full curve]
44 | C[C@@]12CC[C@H](O)C[C@@H]1CC[C@H]1[C@H]2CC[C@@]2(C)[C@@H](C3=CC(=O)OC3)CC[C@]12O | – | inconclusive: 0.158 µM [cytotoxic, full curve]
45 | O=C(O)[C@@H]1[C@H](C(=O)O)[C@]2(Cl)C(Cl)=C(Cl)[C@@]1(Cl)C2(Cl)Cl | – | active: 1 µM
46 | C[C@@H]1CC[C@@H]2N(C1)C[C@H]1[C@@](O)([C@H](O)C[C@]3(O)[C@H]4CC[C@H]5[C@]6(O)O[C@]4(C[C@]13O)[C@@]5(C)CC[C@@H]6O)[C@@]2(C)O | inactive: -7.88% [at 9.22 µM] | –
47 | C[C@@H]1O[C@@H](O[C@H]2C[C@@H](O)[C@]3(CO)[C@@H]4[C@@H](O)C[C@]5(C)[C@H]([C@@H]6COC(=O)C6)CC[C@@]5(O)[C@H]4CC[C@@]3(O)C2)[C@H](O)[C@H](O)[C@@H]1O | – | inconclusive: 0.794 µM [cytotoxic, full curve]
48 | CC(C)(C)OC(=O)N1CCC(c2c(C(=O)N3CCN(Cc4ccccc4)CC3)cnn2-c2ccc(Cl)cc2)CC1 | – | inconclusive: 1.26 µM [cytotoxic, single point]
49 | Cc1ccc(-n2c(/C=C/c3cccc4ccccc34)nc3ccccc3c2=O)cc1 | – | inconclusive: 0.0251 µM [cytotoxic, full curve]
50 | O=P(NS(=O)(=O)c1ccc(Cl)cc1)(Oc1ccccc1)Oc1ccccc1 | – | inconclusive: 5.62 µM [cytotoxic, single point]
51 | CC(=O)OC1CC[C@]2(C)C(CCC3C2CC[C@]2(C)C(C4=CC(=O)OC4)C(OC(C)=O)CC32O)C1 (some centres undefined) | – | inconclusive: 0.316 µM [cytotoxic, full curve]
52 | Cc1ccccc1-n1c(/C=C/c2ccccc2F)nc2ccccc2c1=O | – | inconclusive: 15.8 µM [cytotoxic, partial curve]
53 | C=CCN1CC[C@@]23c4c5ccc(O)c4O[C@H]2/C(=N\N=C2/CC[C@@]4(O)[C@H]6Cc7ccc(O)c8c7[C@@]4(CCN6CC=C)[C@@H]2O8)CC[C@]3(O)[C@@H]1C5 | – | inconclusive: 12.6 µM [cytotoxic, single point]
54 | Cc1cc(N=Nc2ccccc2C)ccc1N | – | inconclusive: 15.8 µM [cytotoxic, partial curve]
